This is one part of the list.

The assay relates to PfAP2-HC AP2 domain (GST-tagged). In words: gcPBM binding intensity (ln(normalized median fluorescence intensity)); higher = stronger DNA binding. The method, boiled down: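 DNA-binding domains from P. falciparum, fused to GST and produced in E. coli, were put on an Agilent 4 × 180k double-stranded probe array for 1 h in 1× PBS holding 1% milk, 0.2 mg/ml BSA, 0.5% salmon testes DNA and 0.03% Triton X-100. Probes were primer-extended, 36 bp long and drawn from intergenic genomic regions, with negative controls included. After Alexa488 anti-GST antibody detection and a 488 nm scan, binding intensity was set as the highest Masliner-normalised natural-log median intensity across replicate spots of either probe orientation.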
For “AAAAGAAAAAGAAAAACACACATAAATATAAATATA [CACACA_site1879]”, the “gcPBM binding intensity (ln)” value came out at 10.2. For “TATATTTTACTCTTCACACATATACTCAATTTATAT [CACACA_site5357]” the value was 9.85; for “CATATTTGGAAACACACACACATATTTATATATATA [CACACA_site3569]”, 10.6; for “AAATTCAGGTTATATTTTAATTTTTTTTTGTTTTTT [CACACA_negctrl_site924]”, 9.55. Under “CATACACATACACATACACACGCATAGAAACATACG [CACACA_site8666]” stands 10.4; under “AATTTTTCATCAAGTTGTACAATTATTTGTTTGTTT [XGTACX_site3113]”, 10. With “CAATATTTTTTATAGGGTACAAAAGATAAAAAAAAA [XGTACX_site6298]”, the “gcPBM binding intensity (ln)” value turned out to be 9.68. For “AAAACAATAATATACTGTACATATATATAATAACAT [XGTACX_site6188]” the value was 9.9; for “GTACATACATAAAACACACACATATATATATATATA [CACACA_site1826]”, 10. Under “TAATTAAAAAATAAAAAAAAAAAAAATTAAAACAAA [CACACA_negctrl_site500]” stands 9.46. Take “TGCTAATAATTATTTGTTTAGCAACAAAAAAAAAAA [CACACA_negctrl_site1541]”: the “gcPBM binding intensity (ln)” value came to 9.2.

Consider “TTCTTTTTAATTTATTTTTTCTTATAACAAGAAAAC [CACACA_negctrl_site201]”, for which the “gcPBM binding intensity (ln)” value came to 9.61.

Take “TCACATATGTTCCATTGTACTTGTAGTAATTTTTTC [XGTACX_site6473]”: the “gcPBM binding intensity (ln)” value worked out at 9.81. As to “GTAATATGTATCCATACACACATACATTTTATTTGC [CACACA_site4640]”, the “gcPBM binding intensity (ln)” value was 9.98. With “ATAAAATGAAATATATGTACGCATCACTTGTTGAAC [XGTACX_site4530]”, the “gcPBM binding intensity (ln)” value stood at 9.72. Under “TTCTTTTCTTTTTTCTTTTTTTTTTTCTTTTCTTTT [GTGCAC_negctrl_site630]” stands 9.6. On to “AAAAAAAAAAAAAAAACATGCAAAATAATATATATA [TGCATGCA_site68]”, for which the “gcPBM binding intensity (ln)” value is 9.52.

As for “AGAAAAGGACATATATGTACTTATCAATATAGAAAC [XGTACX_site1042]”, the “gcPBM binding intensity (ln)” value came out at 9.88. Under “ATTTATTTTTTACATTGTACATATTTATTCCTTTTA [XGTACX_site8028]” stands 9.95; under “TTATTTTCAAAATGTTGTACACACAAAAAAAAAAAA [XGTACX_site3151]”, 9.67; under “TTTTTTTTTTTTTTTGCATGCAGGTTTTTACCCCTT [TGCATGCA_site381]”, 9.53.

As to “TTTTTTTTCTTCAAGCGTACTTATTTGTAGAAAAAA [XGTACX_site1728]”, the “gcPBM binding intensity (ln)” value came to 9.27. As to “ATATGTGGAAATAGAGCACACATATATATAATATAT [CACACA_site8194]”, the “gcPBM binding intensity (ln)” value was found to be 10.1.

With “TATGTATATATATAAAGTACGCAAATTTATAATAAG [XGTACX_site8744]”, the “gcPBM binding intensity (ln)” value came out at 9.74. Consider “TTTTGTTTTAAAAGTACACACTTTTAATTAGATTTC [CACACA_site4788]”, for which the “gcPBM binding intensity (ln)” value came out at 9.62. For “AAAATACACAACATATATATATATATATATATATAT [XGTACX_negctrl_site21]”, the “gcPBM binding intensity (ln)” value was 9.62.

Regarding “TGATCAATGGATTTAACACACAAAAAAAAAAAAAAA [CACACA_site3845]”, the “gcPBM binding intensity (ln)” value was 9.36. Under “TACATGAATAAACTTACACACACCCATGCATACATA [CACACA_site97]” stands 10.4; under “TGAAAAGGAAAATTTTGTACATATACATCAAGGATA [XGTACX_site656]”, 9.45; under “ACTTTTTATTTTTTACTATATATATATATATATATG [TGCATGCA_negctrl_site463]”, 10.1. Under “AAAAAAAAGAATTTACGTACTTATTATTTATATTTT [XGTACX_site5701]” stands 9.67; under “ACTAACATATATTCAACACACATATACCTTCAACCC [CACACA_site3011]”, 10.2; under “TATATATATATATACACACACACATATATATATATA [CACACA_site774]”, 9.96.

On to CCCATTTAATATTGAGTGCATTTAAATAAATGTATT, for which the “gcPBM binding intensity (ln)” value came out at 9.53.

Take “TTTTACAAAGTATGATGTACAAGTATATATAAATAT [XGTACX_site2072]”: the “gcPBM binding intensity (ln)” value is 9.57. Under “TCCCTTAAAATGATATGTACATAAAAATAAAAAAAA [XGTACX_site836]” stands 9.43. Under “AACATAAGTAAGAATACATGCGGAAATTATATAGAA [TGCATGCA_site112]” stands 9.81; under “TATAAATTTAAAATGACACACACTAAAGTTATTTAA [CACACA_site6700]”, 9.86; under “TAAATATTATAAATGATACACACTTAAAATACTCAC [CACACA_site2710]”, 9.83. For “TTAAAAGAAAATAACACACACAAAAAAAAAAAAAAA [CACACA_site2117]” the value was 9.79; for “TATATATTTGTTCACACACACACAAAAAAAAAAAAA [CACACA_site2475]”, 10.3; for “TAAGGACTAATATTTGAACACACATATAATATATAC [CACACA_site9325]”, 9.74. Regarding “CATATATATATATATATATATATATTTATTTATTTA [TGCATGCA_negctrl_site165]”, the “gcPBM binding intensity (ln)” value is 9.51. On to GTCATCAAGTATTAAGTGCATTAAAAATAAAATATA, for which the “gcPBM binding intensity (ln)” value stood at 9.47. On to “AGTTTAATATAAAATACACACTACTCTTATAAATAT [CACACA_site6803]”, for which the “gcPBM binding intensity (ln)” value stood at 9.65.

(Values after the supplement of paper PMC11417369.)
